Test system: CTNNB1
Assay: In vitro DMD assay: mRNA silencing enhancement by peptide conjugates after siRNA-IV treatment
Assay type: cell-based
Settings: primary mouse hepatocytes, siRNA-IV 125 nM baseline
Procedure: Cryopreserved primary Mouse hepatocytes (Bioreclamation, LLC) were placed into Collagen Type I coated 96-well plates at 25,000 cells per well in serum-containing InVitroGRO CP media (Bioreclamation, LLC) and allowed 5 hours to attach. Media was replaced with InVitroGRO HI media and cells were treated with siRNA-IV at 125 nM [siRNA] for 1 hour. Media was replaced with InVitroGRO HI media and cells were treated for approximately 16 hours with experimental Peptide conjugates at various concentrations to establish a dose-response curve. Peptide conjugates were washed out after 16 hours with InVitroGRO HI media and cells allowed to incubate for an additional 24 hours. Cells were then lysed and mRNA expression of the siRNA target was measured by RT-qPCR (Applied Biosystems Taqman reagents). mRNA silencing activity of each Peptide conjugate was expressed as an enhancement above the baseline activity of 125 nM siRNA-IV alone with respect to the untreated cells and all siRNA target Ct values were normalized to PPIB mRNA for each well (dddCt) and summarized.
The structure of TGN-S-S-peptide is shown below and the activity data is listed in Table 5 (siRNA-IV concentration was kept at […]).

| Substance | In vitro dddCt (vs. baseline SCE dose) (Targeted peptide dose 8 nM) | In vitro dddCt (vs. baseline SCE dose) (Targeted peptide dose 40 nM) | In vitro dddCt (vs. baseline SCE dose) (Targeted peptide dose 200 nM) | In vitro dddCt (vs. baseline SCE dose) (Targeted peptide dose 1000 nM) | In vitro dddCt (vs. baseline SCE dose) (Targeted peptide dose 5000 nM) |
| --- | --- | --- | --- | --- | --- |
| TGN-S-S-Seq-ID-53 (L) (CIFGAIAGFIKNIWEGLIDGWYGKLALKLALKALKAALKLA; TGN disulfide conjugate; L-amino acids; listed as Homo sapiens) | −0.11 | −0.08 | −0.11 | −0.02 | 0.01 |
| TGN-S-S-Seq-ID-45 (L) (CGGFEAIEGFIENGWEGMIDGWYGYGRKKRRQRR; TGN disulfide conjugate; L-amino acids; listed as Homo sapiens) | −0.14 | 0.04 | −0.08 | −0.01 | −0.26 |
